# From the supplement of paper PMC8728848
# The other results are listed elsewhere or left out.
# Key:
# Assay in all cases: glycan array binding signal (z-score within array); higher = stronger binding
# Settings in all cases: glycan notation: IUPAC condensed, linker removed
# [1] = target: Neu5Ac(a2-3)Gal(b1-4)GlcNAc(b1-3)[Neu5Ac(a2-3)Gal(b1-4)GlcNAc(b1-6)]GalNAc
# How it was run: (§1)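 Arrays were curated from the Consortium for Functional Glycomics database, 3228 in total, and kept only where the protein sequence was available. Binding is expressed as a within-array Z-score. This score was averaged across arrays of the same protein sequence at different concentrations or buffers and across linkers, and negative values can be read as non-binding.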
# [2] = target: Neu5Ac(a2-3)Gal(b1-4)GlcNAc(b1-6)GalNAc
# How it was run: as §1
# [3] = target: Neu5Ac(a2-3)Gal(b1-4)GlcNAc(b1-6)[Gal(b1-3)]GalNAc
# How it was run: as §1
# [4] = target: Neu5Ac(a2-3)Gal(b1-4)GlcNAc(b1-6)[Neu5Ac(a2-3)Gal(b1-3)]GalNAc
# How it was run: as §1
# [5] = target: Neu5Ac(a2-3)Gal(b1-4)GlcNAc6S
# How it was run: as §1
# [6] = target: Neu5Ac(a2-3)Gal(b1-4)[Fuc(a1-3)]GlcNAc
# How it was run: as §1
# [7] = target: Neu5Ac(a2-3)Gal(b1-4)[Fuc(a1-3)]GlcNAc(b1-2)Man
# How it was run: as §1
# [8] = target: Neu5Ac(a2-3)Gal(b1-4)[Fuc(a1-3)]GlcNAc(b1-3)Gal
# How it was run: as §1
# [9] = target: Neu5Ac(a2-3)Gal(b1-4)[Fuc(a1-3)]GlcNAc(b1-3)Gal(b1-4)GlcNAc
# How it was run: as §1
# [10] = target: Neu5Ac(a2-3)Gal(b1-4)[Fuc(a1-3)]GlcNAc(b1-3)Gal(b1-4)[Fuc(a1-3)]GlcNAc(b1-3)Gal(b1-4)[Fuc(a1-3)]GlcNAc
# How it was run: as §1
# [11] = target: Neu5Ac(a2-3)Gal(b1-4)[Fuc(a1-3)]GlcNAc(b1-3)GalNAc
# How it was run: as §1
# [12] = target: Neu5Ac(a2-3)Gal(b1-4)[Fuc(a1-3)]GlcNAc(b1-6)[Gal(b1-3)]GalNAc
# How it was run: as §1
# [13] = target: Neu5Ac(a2-3)Gal(b1-4)[Fuc(a1-3)]GlcNAc(b1-6)[Neu5Ac(a2-3)Gal(b1-3)]GalNAc
# How it was run: as §1
# [14] = target: Neu5Ac(a2-3)Gal(b1-4)[Fuc(a1-3)]GlcNAc6S
# How it was run: as §1
# [15] = target: Neu5Ac(a2-3)Gal6S(b1-4)GlcNAc
# How it was run: as §1
# [16] = target: Neu5Ac(a2-3)Gal6S(b1-4)[Fuc(a1-3)]GlcNAc
# How it was run: as §1
# Neu5Ac(a2-3)GalNAc = target: Neu5Ac(a2-3)GalNAc
# How it was run: as §1
# [17] = target: Neu5Ac(a2-3)GalNAc(b1-4)GlcNAc
# How it was run: as §1
# [18] = target: Neu5Ac(a2-3)[GalNAc(b1-4)]Gal(b1-4)Glc
# How it was run: as §1
# [19] = target: Neu5Ac(a2-3)[GalNAc(b1-4)]Gal(b1-4)GlcNAc
# How it was run: as §1
# [20] = target: Neu5Ac(a2-3)[GalNAc(b1-4)]Gal(b1-4)GlcNAc(b1-3)GalNAc
# How it was run: as §1
# [21] = target: Neu5Ac(a2-3)[Neu5Ac(a2-6)]GalNAc
# How it was run: as §1
# Neu5Ac(a2-6)Gal = target: Neu5Ac(a2-6)Gal
# How it was run: as §1
# [22] = target: Neu5Ac(a2-6)Gal(b1-3)GlcNAc(b1-3)[Gal(b1-4)GlcNAc(b1-6)]Gal(b1-4)Glc
# How it was run: as §1
# Neu5Ac(a2-6)Gal(b1-4)Glc = target: Neu5Ac(a2-6)Gal(b1-4)Glc
# How it was run: as §1
# [23] = target: Neu5Ac(a2-6)Gal(b1-4)GlcNAc
# How it was run: as §1
# [24] = target: Neu5Ac(a2-6)Gal(b1-4)GlcNAc(b1-2)Man
# How it was run: as §1
# [25] = target: Neu5Ac(a2-6)Gal(b1-4)GlcNAc(b1-2)Man(a1-3)Man(b1-4)GlcNAc(b1-4)GlcNAc
# How it was run: as §1
# [26] = target: Neu5Ac(a2-6)Gal(b1-4)GlcNAc(b1-2)Man(a1-3)[Gal(b1-4)GlcNAc(b1-2)Man(a1-6)]Man(b1-4)GlcNAc(b1-4)GlcNAc
# How it was run: as §1
# [27] = target: Neu5Ac(a2-6)Gal(b1-4)GlcNAc(b1-2)Man(a1-3)[GlcNAc(b1-2)Man(a1-6)]Man(b1-4)GlcNAc(b1-4)GlcNAc
# How it was run: as §1
binder,measurement,setting,value
CvGal2 (Crassostrea virginica) (protein) MGSSHHHHHHSSGLVPRGSHMRIREAGKRKDTTKVYQIPDGLFPGQQVMLRGRVPWGSKSFSINFSATPRMGEGDILFHLNPRPSEGVCIRNALLNGSWGAEEKWQPYFPFDDGRSFSVKIEVTNDAFRTFVNGRPFVDFLHRTDFRAGKYLTLREGAEYYDVIFQSKPNIPLTTAIHNGMRIGKTIRIRGMCTAQDGFAINFNDNRNNIYFHFNARPAQRTVVRNSYFGSWGNEETAISKEFPFYPFLYFYASFVCMEDKFAVYVNDEHFIDFAHRGNPNNISVLQIKGSVNVLDTECLEPMGEDAMTEVDSGLENGDLFVLNGLMTERGKTFAVNFLNGFTENDDIALHFNPRKSTGEVVLNSRYGGAWQSEEKVALPGVFWSNRPLQVKVETKRNKFKIYVNGVDLAKYKIRGNVEDVHAVQVKGDVFLLETLLLKRLMKPVWERLTGGIRPGTWVTLQGTPKKNWQQFVVNFALDDTLDGDIAFHFNVRRGARQVVRNHRQSGAWGREETVTPFFAFDSEATFEIVFFVKEEKFLIYFNGKLFFEFVHRVPVERITHIYMDGDCNFYEPEVVI,glycan array binding signal (z-score),[1],-0.328
same,glycan array binding signal (z-score),[2],-0.339
same,glycan array binding signal (z-score),[3],-0.331
same,glycan array binding signal (z-score),[4],-0.33
same,glycan array binding signal (z-score),[5],-0.337
same,glycan array binding signal (z-score),[6],-0.343
same,glycan array binding signal (z-score),[7],-0.331
same,glycan array binding signal (z-score),[8],-0.339
same,glycan array binding signal (z-score),[9],-0.328
same,glycan array binding signal (z-score),[10],-0.326
same,glycan array binding signal (z-score),[11],-0.292
same,glycan array binding signal (z-score),[12],-0.323
same,glycan array binding signal (z-score),[13],-0.333
same,glycan array binding signal (z-score),[14],-0.321
same,glycan array binding signal (z-score),[15],-0.334
same,glycan array binding signal (z-score),[16],-0.342
same,glycan array binding signal (z-score),Neu5Ac(a2-3)GalNAc,-0.322
same,glycan array binding signal (z-score),[17],-0.326
same,glycan array binding signal (z-score),[18],-0.337
same,glycan array binding signal (z-score),[19],-0.337
same,glycan array binding signal (z-score),[20],-0.324
same,glycan array binding signal (z-score),[21],-0.323
same,glycan array binding signal (z-score),Neu5Ac(a2-6)Gal,-0.339
same,glycan array binding signal (z-score),[22],-0.329
same,glycan array binding signal (z-score),Neu5Ac(a2-6)Gal(b1-4)Glc,-0.332
same,glycan array binding signal (z-score),[23],-0.329
same,glycan array binding signal (z-score),[24],-0.34
same,glycan array binding signal (z-score),[25],-0.334
same,glycan array binding signal (z-score),[26],-0.329
same,glycan array binding signal (z-score),[27],-0.331
